Data from article PMC4336329 (PLoS ONE, 2015).
Hit rate of the full screen: of about 310,000 compounds, about 14,000 (4.5%) showed an effect of 50% or more. Effects have a minus sign here. The list shows a part of the results.

The compounds below were run against human ether-à-go-go-related gene (hERG) potassium channel (human, UniProt Q12809) (assay: primary screen, population patch clamp on CHO cells stably expressing hERG).
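Note: peak tail current of the secondary pulse compared with the same well before compound.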

human ether-à-go-go-related gene (hERG) potassium channel, sequence (Q12809 whole entry, looked up): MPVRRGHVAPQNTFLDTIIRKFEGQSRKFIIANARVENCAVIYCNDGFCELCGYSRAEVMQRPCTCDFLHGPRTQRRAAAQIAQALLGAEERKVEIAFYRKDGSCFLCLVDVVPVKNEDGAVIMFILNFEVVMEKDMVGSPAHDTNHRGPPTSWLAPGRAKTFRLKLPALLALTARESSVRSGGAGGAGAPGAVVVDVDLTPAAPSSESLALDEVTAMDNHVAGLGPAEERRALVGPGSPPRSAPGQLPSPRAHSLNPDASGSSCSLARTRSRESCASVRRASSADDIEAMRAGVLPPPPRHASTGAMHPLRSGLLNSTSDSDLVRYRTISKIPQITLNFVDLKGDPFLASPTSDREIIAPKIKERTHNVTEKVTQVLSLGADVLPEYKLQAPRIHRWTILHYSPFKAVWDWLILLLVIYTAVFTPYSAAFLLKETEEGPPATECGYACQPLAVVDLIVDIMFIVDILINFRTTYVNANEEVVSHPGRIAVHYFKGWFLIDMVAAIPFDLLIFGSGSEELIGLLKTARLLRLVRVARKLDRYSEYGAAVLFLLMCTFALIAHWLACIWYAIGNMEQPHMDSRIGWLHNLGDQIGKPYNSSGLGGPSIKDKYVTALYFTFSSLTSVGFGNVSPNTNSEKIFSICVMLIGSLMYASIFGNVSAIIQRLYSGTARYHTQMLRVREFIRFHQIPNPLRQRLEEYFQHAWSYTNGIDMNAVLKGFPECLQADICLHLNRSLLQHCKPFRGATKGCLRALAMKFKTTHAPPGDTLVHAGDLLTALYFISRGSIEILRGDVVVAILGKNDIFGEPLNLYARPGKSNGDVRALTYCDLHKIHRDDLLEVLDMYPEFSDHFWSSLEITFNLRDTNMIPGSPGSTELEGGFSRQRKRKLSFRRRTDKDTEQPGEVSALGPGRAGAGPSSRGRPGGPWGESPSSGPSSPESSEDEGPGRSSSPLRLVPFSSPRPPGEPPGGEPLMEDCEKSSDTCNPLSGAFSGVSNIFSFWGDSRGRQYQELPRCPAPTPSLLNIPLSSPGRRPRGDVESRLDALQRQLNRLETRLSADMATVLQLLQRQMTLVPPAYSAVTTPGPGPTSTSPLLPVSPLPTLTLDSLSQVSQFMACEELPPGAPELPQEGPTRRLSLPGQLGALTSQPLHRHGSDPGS

Compared with CCCCN(CCCC)Cc1cc2ccccc2c2c1COC2, CCOC(=O)C1CCCN(c2c(NCCCN(C)Cc3ccccc3)c(=O)c2=O)C1 (stereo not shown) is higher in “hERG current change (%, negative = inhibition) at 10uM” value: -54.6% for the first, -9.63% for the second.

First: COc1ccc(CCNC(=O)C/C(C)=N/NC(=O)COc2ccc(C)cc2Br)cc1OC
Second: Cc1ccc(NC(=O)COc2cccc3ccc(C)nc23)c(Br)c1
The “hERG current change (%, negative = inhibition) at 10uM” value of the first is lower: -44.2% for the first, 2.27% for the second.

First: Cc1cccc(C)c1NC(=O)C/C(N)=N/O
Second: CNC(=O)c1ccc(NC(=O)CCc2c(C)noc2C)cc1
The “hERG current change (%, negative = inhibition) at 10uM” value of the first is lower: 3.42% for the first, 20.5% for the second.

Going from COc1cc(OC)c(S(=O)(=O)N2CCN(C(=O)c3ccccc3F)CC2)cc1NC(C)=O to CN(c1ccccc1C(=O)Nc1ccc(S(=O)(=O)N2CCOCC2)cc1)S(C)(=O)=O, the “hERG current change (%, negative = inhibition) at 10uM” value rises from 4.09% to 7.91%.

Going from COc1ccc(OC)c(NC(=O)c2ccc(CN3CCc4ccccc4C3)cc2)c1 to COc1ccc(C(=O)NN(c2ccccc2)c2ccccc2)cc1, the “hERG current change (%, negative = inhibition) at 10uM” value falls from 3.78% to -1.19%.

Going from CCOc1ccccc1N1CCN(C(=O)c2c(CC)noc2C)CC1 to CCOC(=O)N1CCN(C(=O)CSc2nnc(-c3ccccc3OC)o2)CC1, the “hERG current change (%, negative = inhibition) at 10uM” value falls from 6.82% to -12.9%.

First: CCOc1ccc(S(=O)(=O)N2CCN(c3ccccn3)CC2)cc1
Second: COc1ccc(N(C(=O)c2ccc(S(=O)(=O)N3CCCC3)cc2)C2C=CS(=O)(=O)C2)cc1 (stereo not shown)
The “hERG current change (%, negative = inhibition) at 10uM” value of the first is higher: 11.1% for the first, -31.9% for the second.

First: Cn1c(CO)cnc1SCc1ccc(F)cc1
Second: O=C(CSc1ccc(-c2ccc(F)cc2)nn1)Nc1ccc2c(c1)OCCO2
The “hERG current change (%, negative = inhibition) at 10uM” value of the first is higher: 18.2% for the first, -11.3% for the second.

First: Cc1ccc(-c2noc(Cn3nc(C(=O)O)c4ccccc4c3=O)n2)cc1
Second: CCCNC(=O)CCn1nc(-c2ccc(Cl)cc2)c2ccccc2c1=O
The “hERG current change (%, negative = inhibition) at 10uM” value of the first is higher: 23.3% for the first, -20.4% for the second.

First: O=C(O)CCCC(=O)Nc1ccccc1C(=O)O
Second: CCN(CC)c1ccc(/C=N/NC(=O)CCC(=O)NCc2ccccc2)c(O)c1
The “hERG current change (%, negative = inhibition) at 10uM” value of the first is higher: -5.62% for the first, -12.9% for the second.

First: COc1cc(CNc2ncn[nH]2)ccc1OCc1cccc(C)c1
Second: CCOc1ccc(-c2nc(N)ncc2-c2ccccc2OC)c(O)c1
The “hERG current change (%, negative = inhibition) at 10uM” value of the first is higher: -9.34% for the first, -30.2% for the second.

Going from O=C(Nc1ccccc1)C1=C[C@@H](c2ccc(C(F)(F)F)cc2)C[C@@H](OCc2ccc(CO)cc2)O1 to COc1cccc(NC(=O)c2ccccc2Oc2ccccc2)c1, the “hERG current change (%, negative = inhibition) at 10uM” value falls from 6.5% to 5.63%.

Going from NC(=O)CC(NC(=O)Cc1ccc(Br)cc1)c1ccc(NCCc2ccc(F)cc2)c([N+](=O)[O-])c1 (stereo not shown) to CC1CCCCN1CCCNc1ccc(C(CC(N)=O)NC(=O)Cc2ccc(Br)cc2)cc1[N+](=O)[O-] (stereo not shown), the “hERG current change (%, negative = inhibition) at 10uM” value rises from 1.23% to 26.6%.

Compared with CCOc1cc(-c2nc3cc(C)ccn3c2NCC2CCCO2)ccc1O (stereo not shown), COc1cc(-c2nc3ccccn3c2/N=C/c2cc(OC)c(O)cc2Cl)ccc1O is higher in “hERG current change (%, negative = inhibition) at 10uM” value: -72.2% for the first, 7.75% for the second.

First: O=C(NCc1ccccc1)C(c1ccccc1F)N(CC1CCCO1)C(=O)c1ccccn1 (stereo not shown)
Second: O=C(NC1CCCCC1)C(c1ccc(F)cc1)N(CCN1CCOCC1)C(=O)c1ccc(-c2ccccc2)[nH]1 (stereo not shown)
The “hERG current change (%, negative = inhibition) at 10uM” value of the first is lower: 7.17% for the first, 24.4% for the second.

Compared with O=C(N/N=C/c1ccc(O)cc1)c1[nH]c2ccc(Br)cc2c1-c1ccccc1, CC(=O)Nc1ccc(C(=O)c2ccccc2)cc1 is lower in “hERG current change (%, negative = inhibition) at 10uM” value: 25.8% for the first, -4.78% for the second.

Going from CC(C)[C@H](NS(=O)(=O)c1ccc(Cl)cc1)C(=O)OCC(=O)NCCN1C(=O)CSC1=O to CCOC(=O)CN(c1ccccc1C)S(=O)(=O)c1ccc(Cl)cc1, the “hERG current change (%, negative = inhibition) at 10uM” value falls from 7.5% to -20.8%.

Compared with CC(=O)c1sc2nsc(SCCN3CCOCC3)c2c1N, O=C1c2ccccc2C(O)(Cc2ccccc2)N1CCCN1CCOCC1 (stereo not shown) is higher in “hERG current change (%, negative = inhibition) at 10uM” value: -0.389% for the first, 17.9% for the second.

First: COc1ccc(O)c(/C=N/NC(=O)CCC(=O)Nc2cccc(C)c2)c1
Second: CCCC(=O)Nc1cccc(NC(=O)c2ccc([N+](=O)[O-])cc2Cl)c1
The “hERG current change (%, negative = inhibition) at 10uM” value of the first is lower: -14.9% for the first, -14.5% for the second.

Going from Nc1[nH]n2c(=O)c3c(nc2c1N=Nc1ccccc1)CCCC3 to Cc1c(-c2nc(N)nc(Nc3ccc(F)cc3)n2)oc2ccccc12, the “hERG current change (%, negative = inhibition) at 10uM” value rises from -54.3% to 9.41%.

First: CC(C)Cc1nc2oc3c(Cl)ncnc3c2c2c1CCCC2
Second: Cc1ccc(NC2CCCN(C(=O)c3c(C)noc3C)C2)cc1C (stereo not shown)
The “hERG current change (%, negative = inhibition) at 10uM” value of the first is lower: -4.06% for the first, -1.58% for the second.

Compared with O=C(NCC1(N2CCCCC2)CCCCC1)c1cccc(S(=O)(=O)Nc2ccc(F)cc2)c1, Cl.O[Si](CCCN1CCCCC1)(c1ccc(F)cc1)C1CCCCC1 (stereo not shown) is higher in “hERG current change (%, negative = inhibition) at 10uM” value: -64% for the first, -54.3% for the second.

Compared with CO/N=C/NC(=O)C1=NOC(CNc2ncc(C(F)(F)F)cc2Cl)C1 (stereo not shown), Nc1c(-c2ccc(Cl)cc2)cnn1-c1cccc(C(F)(F)F)c1 is higher in “hERG current change (%, negative = inhibition) at 10uM” value: -36.1% for the first, -7.57% for the second.

Compared with COc1ccc(N=c2oc3ccccc3cc2C(=O)Nc2ccccn2)cc1OC, CC(C)Oc1ccc(C(=O)Nc2nc3ccccc3[nH]2)cc1 is higher in “hERG current change (%, negative = inhibition) at 10uM” value: 12.4% for the first, 14.8% for the second.

Compared with COc1ccc2c(CCNC(=O)CN3C(=O)c4ccccc4C3=O)c[nH]c2c1, Cc1ccc(NC(=O)CC2NCCN(Cc3ccccc3)C2=O)cc1 (stereo not shown) is lower in “hERG current change (%, negative = inhibition) at 10uM” value: 0.19% for the first, -16.5% for the second.

Going from Cc1ccc(NC(=O)N2CCCC(c3ccccc3)C2)cc1 (stereo not shown) to Cc1ccc(CC2C(=O)N(c3ccccc3)C(=O)C2C)cc1 (stereo not shown), the “hERG current change (%, negative = inhibition) at 10uM” value falls from 9.76% to 6.5%.

Going from CCc1ccc(C(=O)NNC(=O)CN2C(=O)NC3(CCCC3)C2=O)cc1 to C/C(=N\NC(=O)c1ccn(C)n1)c1ccc(NC(=O)C2CCC2)cc1, the “hERG current change (%, negative = inhibition) at 10uM” value falls from 2% to -6.39%.

Compared with Cc1ccccc1NS(=O)(=O)c1ccc(C(=O)NCC(c2ccco2)N(C)C)cc1 (stereo not shown), CCN(c1ccccc1)S(=O)(=O)c1cc(NC(=O)Nc2ccccc2C#N)ccc1Cl is lower in “hERG current change (%, negative = inhibition) at 10uM” value: -17% for the first, -34.2% for the second.

First: CN(C(=O)CS(=O)(=O)c1cn(CC(=O)N2CCCCC2)c2ccccc12)c1ccccc1
Second: O=C(NC1CCCc2ccccc21)C1CCN(S(=O)(=O)c2cccc3nsnc23)CC1 (stereo not shown)
The “hERG current change (%, negative = inhibition) at 10uM” value of the first is lower: 3.46% for the first, 4.33% for the second.

First: COc1ccc(C(C)(C)C)cc1NC(=O)CCN1C(=O)C2CCCCC2C1=O (stereo not shown)
Second: CC(C)(C)c1ccc(OCC(=O)NCC(c2cccs2)N2CCOCC2)cc1 (stereo not shown)
The “hERG current change (%, negative = inhibition) at 10uM” value of the first is higher: 8.08% for the first, -37% for the second.

First: c1coc(-c2nnc(SCc3nc4ccccc4[nH]3)o2)c1
Second: c1ccc2sc(SCSc3nc4ccccc4s3)nc2c1
The “hERG current change (%, negative = inhibition) at 10uM” value of the first is lower: -16.7% for the first, 15.8% for the second.

First: Fc1cccc(-c2nn[nH]n2)c1
Second: COC(=O)Cc1c(C)nc2nc(-c3cccnc3)[nH]n2c1=O
The “hERG current change (%, negative = inhibition) at 10uM” value of the first is lower: 4.64% for the first, 9.77% for the second.

First: O=C(CC1C(=O)NCCN1Cc1ccc(F)c(F)c1)NCCn1cccn1 (stereo not shown)
Second: COc1ccc(Br)cc1CNC(=O)c1ccc2c(c1)N(C)CCS2
The “hERG current change (%, negative = inhibition) at 10uM” value of the first is higher: 4.04% for the first, -8.73% for the second.

Compared with CCOC(=O)C1Sc2ccccc2NC1=O (stereo not shown), Cc1ccc2c(c1)C1(OCCCO1)C(=O)N2 is higher in “hERG current change (%, negative = inhibition) at 10uM” value: 14.8% for the first, 15.6% for the second.

First: CCOC(=O)c1ccc(NC(=O)c2nc[nH]c2C(=O)NCCCCCNC(=O)OC(C)(C)C)cc1
Second: CC(C)N(C(C)C)S(=O)(=O)c1ccc(NC(=O)c2cnccn2)cc1
The “hERG current change (%, negative = inhibition) at 10uM” value of the first is lower: 0.213% for the first, 1.93% for the second.

First: CCOC(=O)c1sc2nc(SCC(=O)N(CC)CC)n(CCCN3CCCC3=O)c(=O)c2c1C
Second: Cc1nc(NC(=O)CSc2nccn2C)sc1C(=O)N(C)C
The “hERG current change (%, negative = inhibition) at 10uM” value of the first is lower: -32.4% for the first, -1.55% for the second.

Compared with CN(C)S(=O)(=O)Oc1ccsc1C(=O)Nc1ccc(Cl)c(Cl)c1, Cc1nc2sccn2c(=O)c1S(=O)(=O)Nc1ccc(N2CCN(C(=O)C(C)C)CC2)cc1 is higher in “hERG current change (%, negative = inhibition) at 10uM” value: 12.5% for the first, 18.3% for the second.

Compared with CN1CC=C2C(C#N)=C(N)C(C#N)(C#N)[C@H](c3cccs3)[C@H]2C1, O=C(COC(=O)CCC(=O)c1cccs1)NC1CCCCC1 is higher in “hERG current change (%, negative = inhibition) at 10uM” value: 0.684% for the first, 1.55% for the second.

Going from CC12C=CC(=O)C=C1CCC1C3CCC(O)(C(=O)CO)C3(C)CC3OC312 (stereo not shown) to COc1ccc(C2C(C(=O)N3CCC4(CC3)OCCO4)CC(=O)N2c2ccc(OC)cc2)cc1 (stereo not shown), the “hERG current change (%, negative = inhibition) at 10uM” value falls from 6.22% to -6.88%.

First: CCC(=O)N1CCN(c2cc(N3CCN(C)CC3)c(F)cc2[N+](=O)[O-])CC1
Second: Cl.O=[N+]([O-])c1ccc(N2CCNCC2)cc1N1CCCCCC1
The “hERG current change (%, negative = inhibition) at 10uM” value of the first is higher: -15.4% for the first, -42.2% for the second.

Going from COc1cc(OC)cc(-c2c(-c3ccsc3)c3cc(Br)ccc3n2C)c1 to CCN(Cc1ccc(OC)c(COC)c1)CC1CCCN(CCc2cccc(F)c2)C1 (stereo not shown), the “hERG current change (%, negative = inhibition) at 10uM” value falls from 23.8% to -67.7%.

Compared with Cc1ccc(S(=O)(=O)N2CCC(C(=O)OCC(=O)N(CCC#N)c3ccc(F)cc3)CC2)cc1C, CCc1cc2c(=O)c(-c3ccc4c(c3)OCCO4)c(C)oc2cc1OS(C)(=O)=O is higher in “hERG current change (%, negative = inhibition) at 10uM” value: -33.6% for the first, 1.39% for the second.

In the case of Cc1ccc(N2C(=O)C3ON(c4ccccc4)C(c4ccncc4)C3C2=O)c(C)c1 (stereo not shown), the “hERG current change (%, negative = inhibition) at 10uM” value was -7.87%.
